Assay results published in the supplement of paper PMC8728848.
This is one part of the list.

Columns and labels:
Experiment in all cases: glycan array binding signal (z-score within array); higher = stronger binding
Conditions in all cases: glycan notation: IUPAC condensed, linker removed
[1] = molecular target: Neu5Ac(a2-6)Gal(b1-4)GlcNAc(b1-3)Gal(b1-4)GlcNAc(b1-3)GalNAc
Procedure, shortened: (§1)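 The binding signal is a Z-score computed within each array. Data were drawn from 3228 arrays in the Consortium for Functional Glycomics database, restricted to those with a known protein sequence. Scores were averaged over arrays of the same protein sequence at different concentrations or buffers, and over linkers, and negative values can be taken as non-binding.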

[2] = molecular target: Neu5Ac(a2-6)Gal(b1-4)GlcNAc(b1-3)Gal(b1-4)GlcNAc(b1-3)[Neu5Ac(a2-6)Gal(b1-4)GlcNAc(b1-3)Gal(b1-4)GlcNAc(b1-6)]GalNAc
Procedure, shortened: as §1

[3] = molecular target: Neu5Ac(a2-6)Gal(b1-4)GlcNAc(b1-3)Gal(b1-4)GlcNAc(b1-6)[Gal(b1-3)]GalNAc
Procedure, shortened: as §1

[4] = molecular target: Neu5Ac(a2-6)Gal(b1-4)GlcNAc(b1-3)Gal(b1-4)[Fuc(a1-3)]GlcNAc(b1-3)Gal(b1-4)[Fuc(a1-3)]GlcNAc
Procedure, shortened: as §1

[5] = molecular target: Neu5Ac(a2-6)Gal(b1-4)GlcNAc(b1-3)GalNAc
Procedure, shortened: as §1

[6] = molecular target: Neu5Ac(a2-6)Gal(b1-4)GlcNAc(b1-3)[Neu5Ac(a2-6)Gal(b1-4)GlcNAc(b1-6)]GalNAc
Procedure, shortened: as §1

[7] = molecular target: Neu5Ac(a2-6)Gal(b1-4)GlcNAc(b1-6)GalNAc
Procedure, shortened: as §1

[8] = molecular target: Neu5Ac(a2-6)Gal(b1-4)GlcNAc(b1-6)[Gal(b1-3)GlcNAc(b1-3)]Gal(b1-4)Glc
Procedure, shortened: as §1

[9] = molecular target: Neu5Ac(a2-6)Gal(b1-4)GlcNAc(b1-6)[Gal(b1-3)]GalNAc
Procedure, shortened: as §1

[10] = molecular target: Neu5Ac(a2-6)Gal(b1-4)GlcNAc6S
Procedure, shortened: as §1

Neu5Ac(a2-6)GalNAc = molecular target: Neu5Ac(a2-6)GalNAc
Procedure, shortened: as §1

[11] = molecular target: Neu5Ac(a2-6)GalNAc(b1-4)GlcNAc
Procedure, shortened: as §1

[12] = molecular target: Neu5Ac(a2-6)GalNAc(b1-4)GlcNAc6S
Procedure, shortened: as §1

[13] = molecular target: Neu5Ac(a2-6)GlcNAc(b1-4)GlcNAc
Procedure, shortened: as §1

[14] = molecular target: Neu5Ac(a2-6)GlcNAc(b1-4)GlcNAc(b1-4)GlcNAc
Procedure, shortened: as §1

Neu5Ac(a2-8)Neu5Ac = molecular target: Neu5Ac(a2-8)Neu5Ac
Procedure, shortened: as §1

[15] = molecular target: Neu5Ac(a2-8)Neu5Ac(a2-3)Gal(b1-3)GalNAc(b1-4)[Neu5Ac(a2-3)]Gal(b1-4)Glc
Procedure, shortened: as §1

[16] = molecular target: Neu5Ac(a2-8)Neu5Ac(a2-3)Gal(b1-3)GalNAc(b1-4)[Neu5Ac(a2-8)Neu5Ac(a2-3)]Gal(b1-4)Glc
Procedure, shortened: as §1

[17] = molecular target: Neu5Ac(a2-8)Neu5Ac(a2-3)Gal(b1-4)Glc
Procedure, shortened: as §1

[18] = molecular target: Neu5Ac(a2-8)Neu5Ac(a2-3)Gal(b1-4)GlcNAc
Procedure, shortened: as §1

[19] = molecular target: Neu5Ac(a2-8)Neu5Ac(a2-3)[Gal(b1-3)GalNAc(b1-4)]Gal(b1-4)Glc
Procedure, shortened: as §1

[20] = molecular target: Neu5Ac(a2-8)Neu5Ac(a2-3)[GalNAc(b1-4)]Gal(b1-4)Glc
Procedure, shortened: as §1

[21] = molecular target: Neu5Ac(a2-8)Neu5Ac(a2-8)Neu5Ac
Procedure, shortened: as §1

[22] = molecular target: Neu5Ac(a2-8)Neu5Ac(a2-8)Neu5Ac(a2-3)Gal(b1-4)Glc
Procedure, shortened: as §1

[23] = molecular target: Neu5Ac(a2-8)Neu5Ac(a2-8)Neu5Ac(a2-3)[Gal(b1-3)GalNAc(b1-4)]Gal(b1-4)Glc
Procedure, shortened: as §1

[24] = molecular target: Neu5Ac(a2-8)Neu5Ac(a2-8)Neu5Ac(a2-3)[GalNAc(b1-4)]Gal(b1-4)Glc
Procedure, shortened: as §1

[25] = molecular target: Neu5Ac(a2-8)Neu5Ac(a2-8)Neu5Ac(a2-8)Neu5Ac(a2-3)[GalNAc(b1-4)]Gal(b1-4)Glc
Procedure, shortened: as §1

[26] = molecular target: Neu5Ac(a2-8)Neu5Gc(a2-3)Gal(b1-4)GlcNAc
Procedure, shortened: as §1

[27] = molecular target: Neu5Ac(b2-6)Gal(b1-4)GlcNAc
Procedure, shortened: as §1

Neu5Ac(b2-6)GalNAc = molecular target: Neu5Ac(b2-6)GalNAc
Procedure, shortened: as §1

[28] = molecular target: Neu5Ac9Ac(a2-3)Gal(b1-4)GlcNAc
Procedure, shortened: as §1

[29] = molecular target: Neu5Ac9Ac(a2-6)Gal(b1-4)GlcNAc
Procedure, shortened: as §1

[30] = molecular target: Neu5Gc(a2-3)Gal(b1-3)GlcNAc
Procedure, shortened: as §1

[31] = molecular target: Neu5Gc(a2-3)Gal(b1-3)[Fuc(a1-4)]GlcNAc
Procedure, shortened: as §1

Neu5Gc(a2-3)Gal(b1-4)Glc = molecular target: Neu5Gc(a2-3)Gal(b1-4)Glc
Procedure, shortened: as §1

[32] = molecular target: Neu5Gc(a2-3)Gal(b1-4)GlcNAc
Procedure, shortened: as §1

[33] = molecular target: Neu5Gc(a2-3)Gal(b1-4)GlcNAc(b1-3)Gal(b1-4)GlcNAc(b1-2)Man(a1-3)[Neu5Gc(a2-3)Gal(b1-4)GlcNAc(b1-3)Gal(b1-4)GlcNAc(b1-2)Man(a1-6)]Man(b1-4)GlcNAc(b1-4)GlcNAc
Procedure, shortened: as §1

[34] = molecular target: Neu5Gc(a2-3)Gal(b1-4)[Fuc(a1-3)]GlcNAc
Procedure, shortened: as §1

[35] = molecular target: Neu5Gc(a2-6)Gal(b1-4)GlcNAc
Procedure, shortened: as §1

Neu5Gc(a2-6)GalNAc = molecular target: Neu5Gc(a2-6)GalNAc
Procedure, shortened: as §1

[36] = molecular target: Neu5Gc(a2-8)Neu5Ac(a2-3)Gal(b1-4)GlcNAc
Procedure, shortened: as §1

[37] = molecular target: Neu5Gc(a2-8)Neu5Gc(a2-3)Gal(b1-4)GlcNAc
Procedure, shortened: as §1

[38] = molecular target: Neu5Gc(a2-8)Neu5Gc(a2-3)Gal(b1-4)GlcNAc(b1-3)Gal(b1-4)GlcNAc
Procedure, shortened: as §1

[39] = molecular target: Neu5Gc(a2-8)Neu5Gc(a2-6)Gal(b1-4)GlcNAc
Procedure, shortened: as §1

[40] = molecular target: Neu5Gc(b2-6)Gal(b1-4)GlcNAc
Procedure, shortened: as §1

B1: Pbx1 (Cryptococcus neoformans) (protein)
chain: ATTKCLVSGDQDSINNALALGGEGTTVTLCPGSVHRLNSSIIFTAPSQTLTTLGNPKDRNRAMLVVDGEDLACAIRADCKQCSHAMIRSLVIDGNRPQLLRIPKGDALIEVGNAESQTVRDCKLYEPRGWSALHFREGDERQCRFGHIVDNEIGPCGEEWDDEYDSMDETKPLWGNPRADGISLACKDSIVERNVVYDATDGAIVLFGSAGSTVKNNHVYARTRVILGGINLVDYEPWDGDYTNVKVHHNHLYALGRYFKVGIVIGPASWSDDTESVVHSASVTDNEFSGGYWGYGIVVASAKNFEVLRNKVIWDGEQGVARFSGVPGSRCPKAPENGKPTAFLINRGSAKGIFQDDFVNGEVQHIICLNPDQDPPYKPWRFRDSPEAIAAKQAENPTANSAFDSRIAEALVSYQMSLLNSMDAMTQKVEHLTNPIVDDALPFVHEHERAEADKKARQEASRKEKESGNKDVDMLNVKVEELEKSGRRLKKALDGLKSDFEGLSGRLKKSADENKPIIETIFVTSQNLLLGATSQQN
What does the source list for B1?
glycan array binding signal (z-score) [1]: -0.499; glycan array binding signal (z-score) [2]: -0.479; glycan array binding signal (z-score) [3]: 1.17; glycan array binding signal (z-score) [4]: 0.186; glycan array binding signal (z-score) [5]: -0.569; glycan array binding signal (z-score) [6]: 0.871; glycan array binding signal (z-score) [7]: 0.858; glycan array binding signal (z-score) [8]: 0.223; glycan array binding signal (z-score) [9]: 0.736; glycan array binding signal (z-score) [10]: -0.165; glycan array binding signal (z-score) (Neu5Ac(a2-6)GalNAc): -0.606; glycan array binding signal (z-score) [11]: -0.7; glycan array binding signal (z-score) [12]: -0.237; glycan array binding signal (z-score) [13]: -0.909; glycan array binding signal (z-score) [14]: -0.39; glycan array binding signal (z-score) (Neu5Ac(a2-8)Neu5Ac): -0.43; glycan array binding signal (z-score) [15]: -0.124; glycan array binding signal (z-score) [16]: -0.622; glycan array binding signal (z-score) [17]: -0.317; glycan array binding signal (z-score) [18]: 0.133; glycan array binding signal (z-score) [19]: -0.39; glycan array binding signal (z-score) [20]: -0.012; glycan array binding signal (z-score) [21]: -0.162; glycan array binding signal (z-score) [22]: -0.451; glycan array binding signal (z-score) [23]: -0.609; glycan array binding signal (z-score) [24]: 0.643; glycan array binding signal (z-score) [25]: -0.11; glycan array binding signal (z-score) [26]: -0.306; glycan array binding signal (z-score) [27]: -0.212; glycan array binding signal (z-score) (Neu5Ac(b2-6)GalNAc): -0.769; glycan array binding signal (z-score) [28]: -0.26; glycan array binding signal (z-score) [29]: -0.625; glycan array binding signal (z-score) [30]: -0.531; glycan array binding signal (z-score) [31]: -0.06; glycan array binding signal (z-score) (Neu5Gc(a2-3)Gal(b1-4)Glc): -0.927; glycan array binding signal (z-score) [32]: -0.796; glycan array binding signal (z-score) [33]: -0.216; glycan array binding signal (z-score) [34]: 0.018; glycan array binding signal (z-score) [35]: -0.877; glycan array binding signal (z-score) (Neu5Gc(a2-6)GalNAc): -0.017; glycan array binding signal (z-score) [36]: -0.771; glycan array binding signal (z-score) [37]: -0.738; glycan array binding signal (z-score) [38]: -0.058; glycan array binding signal (z-score) [39]: -0.615; glycan array binding signal (z-score) [40]: -0.471
